Reference: the RNAGym collection of RNA variant scans (doi:10.1073/pnas.2313332121)
Variants at the floor of the assay are shown more often than the library holds them.

B1: TPR 5TU (parent)
chain: GGAUCUUCUCGAUCUAACAAAAAAGACAAAUCUGCCACAAAGCUUGAGAGCAUCUUCGGAUGCAGAGGCGGCAGCCUUCGGUGGCGCGAUAGCGCCAACGUUCUCAACUAUGACACGCAAAACGCGUGCUCCGUUGAAUGGAGUUUAUCAUG

Variants of: B1
Assay: polymerase ribozyme fitness, log enrichment relative to wild type (log ratio); higher = more active; in vitro selection for triplet polymerase activity
How it was run: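 Frozen incubation at −7 °C formed the core of a single, triplicate in vitro selection round applied to PCR-built, transcribed mutant libraries of each subunit of a heterodimeric triplet polymerase ribozyme. Extended constructs were gel-excised, captured with streptavidin beads and amplified by RT-PCR, and input and output libraries were Illumina-sequenced with a filter of ≥10 input reads and ≥1 read per output. Fitness is the logarithm of genotype enrichment relative to wild-type enrichment, with inverse-variance-weighted replicate averaging, and the logarithm is base 2.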

Compared with GGAUCUUCUCGAUCUAACAAAAAACACAAAUCUGCCACUAAGCUUGAGAGCAUCUUCGGAUGCAGAGGCGGCAGCCUUCGGUGGCGCGAUAGCGCCAACGUUCUCAACUAUGACCCGCAAAACGCGUGCUCCGUUGAAUGGAGUUUAUCAUG, GGAUCUUCUCGAUCUAACAAAAAACACGAAUCUGCCACAAAGCUUGAGAGCAUCUUCGGAUGCAGAGGCGGCAGCCUUCCGUAGCGCGAUAGCGCCAACGUUCUCAACUAUGACACGCAAAACGCGUGCUCCGUUGAAUGGAGUUUAUCAUG is higher in “polymerase ribozyme fitness (log ratio)” value: ≤ -4.2 for the first, -4.19 for the second.

GGAUCUUCUCGAUCUAACAAAAAACACAAAUCUGCCACAAAGCUUGAGAGCAUCUUCGGAUGCAGAGGAGGCAGCAUUCGGUGGUGCGAUAGCGCCAACGUUCUCAACUAUGACACGCAAAACGCGUGCUUCGUUGAAUGGAGUUUAUCAUG and GGAUCUUCUCGAUCUAACAAAAAACACAAAUCUGCCACAAAGCUUGAGAGCAUCUUCGGAUGCAGUGGCGGCAGCCUUCGGUGGCGCGAUAGCGCCAACGUUCUCAACUAUGACACGCAAAACGCGUGCUCCGUUGAAUGGAGUUUAUCAUG cannot be ordered by “polymerase ribozyme fitness (log ratio)” value: ≤ -4.2 for the first, ≤ -4.2 for the second.

GGAUCUUCUCGAUCUAACAAAAAACACAAAUCUGCCACUAAGCCUGAGAGCAUCUUCGGAUGCAGAGGCGGCAGCCUUCGGUGGCGCGAUGGCGUCAACGUUCUCAACUAUGACACGCAAAACGCGUGCUCCGUUGAAUGGAGUUUAUCAUG and GGAUCUUCUCGAUCUAACAAAAAACACAAAUCUGCCACAACGCUUGCGAGCAUCUUCGGAUGCAGAGGCGGCAGCCUUCGGUUGCGCGUUAGCGCCAACGUUCUCAACUAUGACACGCAACACGGGUGCUCCGUUGAAUGGCGUUUAUGUUA cannot be ordered by “polymerase ribozyme fitness (log ratio)” value: ≤ -4.2 for the first, ≤ -4.2 for the second.

GGAUCUUCUCGAUCUAACAAAAAACACACAUCUGCCACAAAGCUAGAGAGCAUCUACGGAUGCAGAGGCAGCCGCCUUCGGUGGCGCCAUAGCGCCAACGUUCUCAACUAUGACGCGCAAAACGCGUGCUCCGUUGAAUGGAGUUUAUCAUA and GGAUCUUCUCGAUCUAACAAAAAACACAAAUCUGCCAAAAAGCUUGAGACCAUCUUCGGAUGCAGAGGCGGCAGCCUUCGGUGGCGCGAUACCGCCAACGUUCUCAACUAUGACACGCAAAACGCGUGCGCCGUUGAAUGGAGUUUAUCAUG cannot be ordered by “polymerase ribozyme fitness (log ratio)” value: ≤ -4.2 for the first, ≤ -4.2 for the second.

GGAUCUUCUCGAUCUAACAAAAAACACAAAUCUGGCACAAAGCUUGAGUGCAUCAUAGGAUCCAGAGGCGGCAGCCUUCGGUGGCGCGAUAGCGCCAACGUUCUCAACUGUGACACGCAAAACGCGUGCUCCGUUGAAUGGAGUUUAUCGUG and GGAUCUUCUCGAUCUAACAAAAAACACAAAUCUGCCACACAGCUUGAGAGCAUCUUCCGAUGCAGAGGCGGCAGCCUUCGGUGGCGCGAUAGCGUCAACGUUCUCAACUAUGACACGCAAAACGCGUGCUGCGUUGAAUGGAGUUUAUCAUG cannot be ordered by “polymerase ribozyme fitness (log ratio)” value: ≤ -4.2 for the first, ≤ -4.2 for the second.

GGAUCUUCUCGAUCUAACAAAAAACACAAAUCUGGCACAAAGCUUGAGAGCAUCUUCGAAUGCAGAGGCGGCAGCCUUCGGUGGCGCGAUUGCGCCAACGUUCUCAACUAUGACACGCAAAACGCGUGCUCCGUUGAAUCGAGUUUAUCAUG and GGAUCUUCUCGAUCUAACAAAAAACGCAAAUCUGCCACAAAGCUUGAGAGCAUCUUCGGAUGCAGAGGCAGCAGCCUUCGGUGGCGCGAUCGCCCCAACGUUCUCAACUAUGACACGCAAAACGCGUGCUCCGUUGAAUGGAGUUUAUCAUG cannot be ordered by “polymerase ribozyme fitness (log ratio)” value: ≤ -4.2 for the first, ≤ -4.2 for the second.

GGAUCUUCUCGAUCUAACAAAAAACACAAAUCUGCCAUAAAGCUUGAGAGCAUCUUCGGAUGCAGAGGCGGCUGCCUUCGGUGGCGCGAUAGCUCGAACGUUCUCAACUAUGACAGGCAAAACGCGUGCUCCGUUGAAUGGAGUUUAUCAUG and GGAUCUUCUCGAUCUAACAAAAAACACAAAUCUGCCACGAAGCUUGAGAGCAUCUUCGGAUGCAGGGGCGGCAACCUUCGGUGGCGCGAUAGCGCCAACGUUCUCAACUAUGACACGCAAAACGCGUGCUCUGUUGAAUGGAGUUUAUCCUG cannot be ordered by “polymerase ribozyme fitness (log ratio)” value: ≤ -4.2 for the first, ≤ -4.2 for the second.

First: GGAUCUUCUCGAUCUAACAAAAAACACAAUUCUGCCACAAAGCUUGAGAGCAUCUUCGGAUGCAGAGGCGGCAGCCUCCGGUGGCGCGAUAGCGCGAACGUUCUCAACUAUGACACGCAAAACGCGUGCUCCGUUGAAUGGAGUUUAUCAUG
Second: GGAUCUUCUCGAUCUAACAAAAAACACAAAUCUGCCACAAAGCUUGAGCGCAUCUUCGGAUGCAGAGGCGGCAGCCUUCGGUGGCGCGAUAGGGCCAACGUUCUCAACUAUGACACGCAAAACGCGUGCUCCGUUGAAUGGAGUUUAUCAUG
The “polymerase ribozyme fitness (log ratio)” value of the first is higher: -3.97 for the first, ≤ -4.2 for the second.

GGAUCUUCUCGAUCUAACAAAAAACACAAAUCUGCCCCAAAGCUUGAGAGCAUCUUCGGAUGCAGAGGCGGCAGCCUUCGGUGGCGCGAUAGCCCCAACGUUCUCAACUAUGACACGCAAAAGGCGUGCUCCGUUGAAUGAAGUUUAUCAUG and GGAUCUUCUCGAUCUAACAAAAAACACAAAUCUGCCACAAAGCUUGAGAGCAUCUUAGGAUGAAGAGGCGGCAGCCUUCGGUGGCGCGAUACCGCCAACGUUCUCAACUAUGCCACGCAAAACGCGUGCUCCGAUGAAUGGAGUUUAUCAUG cannot be ordered by “polymerase ribozyme fitness (log ratio)” value: ≤ -4.2 for the first, ≤ -4.2 for the second.

With GGAUCUUCUCGAUCUAACAAAAAACACUAAUCUGCCACAAAACUUGAGAGCAUCUUCGGAUGCAGAGGCGGCAGCCUUCGGUGGCGCGAUAGCGCGAACGUUCUCAACGAUGACACGCAAACCGCGUGCUCCGAUGAAAGGAGCUUAUCAUG the “polymerase ribozyme fitness (log ratio)” value was ≤ -4.2.
